In assay [1] the test system is RAW-Dual. The assay can be described thus: NF-kB SEAP reporter activity, fold change vs agonist alone; cytotoxicity flag (confluency mask): not cytotoxic; higher = enhanced NF-kB activity. Put shortly: (§1)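 Cytotoxic wells were those whose IncuCyte confluency was below 70% of agonist controls in both mask sets. The cells were RAW-Dual macrophages at 50,000 cells/well in DMEM on 384-well plates, dosed with 50 nL of library stock by pin tool, stimulated with a PRR agonist 1 h later, and kept at 37 °C, 5% CO2 for 20 hours. IRF and NF-κB reporter activity, as fold change over agonist-alone wells, came from supernatant read by QuantiLuc luminescence and QuantiBlue absorbance, respectively.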

Assay [2] has as its system RAW-Dual. Kind of assay: NF-kB SEAP reporter activity, fold change vs agonist alone; higher = enhanced NF-kB activity. The procedure, abridged: as §1
For assay [3], the system named is RAW-Dual. The assay can be described thus: NF-kB SEAP reporter activity, fold change vs agonist alone; cytotoxicity flag (confluency mask): cytotoxic (confluency <70% of control); higher = enhanced NF-kB activity. Put shortly:
as §1

[4] abbreviates: agonist: ODN 1826 (TLR9) 0.5 ug/mL.
[5] abbreviates: agonist: Pam2CSK4 (TLR2/6) 0.1 ug/mL.
Setting [6] is: agonist: Pam3CSK4 (TLR2/1) 0.1 ug/mL.
Setting [7] is: library stock concentration (final ~1000-fold dilution): 10 mM, cytotoxicity flag (confluency mask): not cytotoxic, agonist: Imiquimod (TLR7) […].
The mark [8] stands for this setting: library stock concentration (final ~1000-fold dilution): 10 mM, cytotoxicity flag (confluency mask): not cytotoxic, agonist: MPLA (TLR4) […].

In all, about 2,900 compounds were measured (“NF-kB SEAP reporter activity, fold change vs agonist alone”: median about 0.99, highest 2% from about 2.6 on). This is one part of the list.

With `CN(C)c1ccc(O)c2c1CC1CC3C(N(C)C)C(O)=C(C(N)=O)C(=O)C3(O)C(O)=C1C2=O.Cl` (centres undefined) (library stock concentration (final ~1000-fold dilution): 2 mM water), the “NF-kB SEAP reporter activity” value in the assay on RAW-Dual [1] (agonist: LPS (TLR4) 0.1 ug/mL) is 1.09; with RAW-Dual [1] (setting [4]), 1.17; in the assay with RAW-Dual [1] (setting [5]), 1.11; with RAW-Dual [1] (setting [6]) it was 0.922.
For the compound `CN(C)c1ccc(O)c2c1CC1CC3C(N(C)C)C(O)=C(C(N)=O)C(=O)C3(O)C(O)=C1C2=O.Cl` (centres undefined), the “NF-kB SEAP reporter activity” value in the assay with RAW-Dual [2] (library stock concentration (final ~1000-fold dilution): 2 mM water, cytotoxicity flag (confluency mask): not cytotoxic, agonist: Imiquimod (TLR7) […]) was 0.904; with RAW-Dual [2] (library stock concentration (final ~1000-fold dilution): 2 mM water, cytotoxicity flag (confluency mask): not cytotoxic, agonist: MPLA (TLR4) […]), 1.07.
With `COC(=O)c1ccc(O)c(NC(=O)COc2ccc(C34CC5CC(CC(C5)C3)C4)cc2)c1` (library stock concentration (final ~1000-fold dilution): 10 mM), the “NF-kB SEAP reporter activity” value worked out at 0.69 in the assay on RAW-Dual [1] (agonist: LPS (TLR4) 0.1 ug/mL), 1.01 in the assay on RAW-Dual [1] (setting [4]), 0.588 in the assay on RAW-Dual [1] (setting [5]) and 0.704 in the assay with RAW-Dual [1] (setting [6]).
Regarding `COC(=O)c1ccc(O)c(NC(=O)COc2ccc(C34CC5CC(CC(C5)C3)C4)cc2)c1`, the “NF-kB SEAP reporter activity” value in the assay with RAW-Dual [2] (setting [7]) amounted to 1.1; in the assay on RAW-Dual [2] (setting [8]) it was 0.981.
For the compound `Cc1cnc(Nc2ccc(N3CCN(C)CC3)cc2)nc1Nc1cccc(S(=O)(=O)NC(C)(C)C)c1` (library stock concentration (final ~1000-fold dilution): 10 mM), the “NF-kB SEAP reporter activity” value in the assay on RAW-Dual [1] (agonist: LPS (TLR4) 0.1 ug/mL) was found to be 7.
With `CC(C)CCN1c2nc(Nc3cc(F)c(O)c(F)c3)ncc2N(C)C(=O)C1C` (centres undefined), the results for the “NF-kB SEAP reporter activity” value in the assay on RAW-Dual [2] (setting [7]) and in the assay with RAW-Dual [2] (setting [8]) were 2.84 and 2.55, respectively.
On to `CC(C)CCN1c2nc(Nc3cc(F)c(O)c(F)c3)ncc2N(C)C(=O)C1C` (centres undefined) (library stock concentration (final ~1000-fold dilution): 10 mM), for which the “NF-kB SEAP reporter activity” value in the assay with RAW-Dual [1] (agonist: LPS (TLR4) 0.1 ug/mL) amounted to 4.3; with RAW-Dual [1] (setting [4]), 2.63; with RAW-Dual [1] (setting [5]), 1.02; in the assay on RAW-Dual [1] (setting [6]) it was 2.05.
With `O=C1NC(=O)/C(=C/c2ccc(-c3ccc(F)cc3O)o2)S1`, the “NF-kB SEAP reporter activity” value with RAW-Dual [2] (setting [7]) stood at 0.696; in the assay on RAW-Dual [2] (setting [8]), 1.09.
Regarding `O=C1NC(=O)/C(=C/c2ccc(-c3ccc(F)cc3O)o2)S1` (library stock concentration (final ~1000-fold dilution): 10 mM), the “NF-kB SEAP reporter activity” value in the assay on RAW-Dual [1] (agonist: LPS (TLR4) 0.1 ug/mL) is 0.929; in the assay on RAW-Dual [1] (setting [4]) it was 0.492; in the assay on RAW-Dual [1] (setting [5]), 0.646; in the assay with RAW-Dual [1] (setting [6]), 0.541.
For `CCCCCCCCCCCCCCCCCC(=O)O` (library stock concentration (final ~1000-fold dilution): 10 mM) the same measures were 0.849, 1.02, 0.95 and 1.17.
In the case of `CCCCCCCCCCCCCCCCCC(=O)O`, the results for the “NF-kB SEAP reporter activity” value with RAW-Dual [2] (setting [7]) and with RAW-Dual [2] (setting [8]) were 0.96 and 1.05, respectively.
For `O=C(C=Cn1cnc(-c2cc(C(F)(F)F)cc(C(F)(F)F)c2)n1)N1CC(F)(F)C1` the same measures were 1.17 and 0.953.
For `O=C(C=Cn1cnc(-c2cc(C(F)(F)F)cc(C(F)(F)F)c2)n1)N1CC(F)(F)C1` (library stock concentration (final ~1000-fold dilution): 10 mM), the “NF-kB SEAP reporter activity” value turned out to be 0.368 in the assay with RAW-Dual [1] (agonist: LPS (TLR4) 0.1 ug/mL), 0.741 with RAW-Dual [1] (setting [4]), 0.632 in the assay with RAW-Dual [1] (setting [5]) and 0.492 in the assay on RAW-Dual [1] (setting [6]).
In the case of `CCn1c(=O)c(-c2ccc(-c3cncs3)cc2Cl)cc2cnc(Nc3ccc(N4CCN(C)CC4)cc3)nc21`, the figures for the “NF-kB SEAP reporter activity” value in the assay on RAW-Dual [2] (setting [7]) and with RAW-Dual [2] (setting [8]) were 0.522 and 1.72, respectively.
For `CCn1c(=O)c(-c2ccc(-c3cncs3)cc2Cl)cc2cnc(Nc3ccc(N4CCN(C)CC4)cc3)nc21` (library stock concentration (final ~1000-fold dilution): 10 mM), the “NF-kB SEAP reporter activity” value was found to be 1.62 in the assay on RAW-Dual [1] (agonist: LPS (TLR4) 0.1 ug/mL), 1.39 in the assay with RAW-Dual [1] (setting [4]), 0.8 with RAW-Dual [1] (setting [5]) and 1.34 with RAW-Dual [1] (setting [6]).
In the case of `CC[N+](CC)(CC)CC` (library stock concentration (final ~1000-fold dilution): 10 mM), the “NF-kB SEAP reporter activity” value was found to be 0.917 in the assay on RAW-Dual [1] (agonist: LPS (TLR4) 0.1 ug/mL), 1 with RAW-Dual [1] (setting [4]), 1.1 in the assay with RAW-Dual [1] (setting [5]) and 1.03 in the assay with RAW-Dual [1] (setting [6]).
Turning to `CC[N+](CC)(CC)CC`, the “NF-kB SEAP reporter activity” value with RAW-Dual [2] (setting [7]) came to 0.949; in the assay on RAW-Dual [2] (setting [8]) it was 1.05.
`Br.Br.NCCCCCNCC12CC3CC(CC(C3)C1)C2` (library stock concentration (final ~1000-fold dilution): 10 mM): the “NF-kB SEAP reporter activity” value in the assay with RAW-Dual [1] (agonist: LPS (TLR4) 0.1 ug/mL) amounted to 1.18; in the assay with RAW-Dual [1] (setting [4]), 0.944; with RAW-Dual [1] (setting [5]), 0.83; in the assay on RAW-Dual [1] (setting [6]), 1.01.
For `Br.Br.NCCCCCNCC12CC3CC(CC(C3)C1)C2`, the results for the “NF-kB SEAP reporter activity” value in the assay with RAW-Dual [2] (setting [7]) and in the assay on RAW-Dual [2] (setting [8]) were 1.09 and 1.15, respectively.
`CN1CCN(CCCNc2ncc(Cl)c(-c3cc4c(C(=O)NC5CC5)cccc4s3)n2)CC1`: the “NF-kB SEAP reporter activity” value in the assay on RAW-Dual [2] (library stock concentration (final ~1000-fold dilution): 10 mM, cytotoxicity flag (confluency mask): cytotoxic (confluency <70% of control), agonist: Imiquimod (TLR7) […]) amounted to 0.205; with RAW-Dual [2] (library stock concentration (final ~1000-fold dilution): 10 mM, cytotoxicity flag (confluency mask): cytotoxic (confluency <70% of control), agonist: MPLA (TLR4) […]) it was 0.309.
Take `CN1CCN(CCCNc2ncc(Cl)c(-c3cc4c(C(=O)NC5CC5)cccc4s3)n2)CC1` (library stock concentration (final ~1000-fold dilution): 10 mM): the “NF-kB SEAP reporter activity” value in the assay with RAW-Dual [3] (agonist: LPS (TLR4) 0.1 ug/mL) turned out to be 0.309; in the assay on RAW-Dual [3] (setting [4]) it was 0.195; in the assay with RAW-Dual [3] (setting [5]), 0.0714; with RAW-Dual [3] (setting [6]), 0.165.
For the compound `Cl.OC(CCCN1CCCCC1)(c1ccccc1)c1ccccc1`, the “NF-kB SEAP reporter activity” value in the assay on RAW-Dual [2] (setting [7]) amounted to 0.99; in the assay with RAW-Dual [2] (setting [8]), 1.03.
For `Cl.OC(CCCN1CCCCC1)(c1ccccc1)c1ccccc1` (library stock concentration (final ~1000-fold dilution): 10 mM), the “NF-kB SEAP reporter activity” value with RAW-Dual [1] (agonist: LPS (TLR4) 0.1 ug/mL) came to 0.99; with RAW-Dual [1] (setting [4]), 0.832; with RAW-Dual [1] (setting [5]) it was 1; in the assay with RAW-Dual [1] (setting [6]), 0.992.
For `CCN(CC)Cc1cc(Nc2ccnc3cc(Cl)ccc23)ccc1O.Cl.Cl.O.O` (library stock concentration (final ~1000-fold dilution): 10 mM), the “NF-kB SEAP reporter activity” value in the assay on RAW-Dual [1] (agonist: LPS (TLR4) 0.1 ug/mL) came out at 0.419; with RAW-Dual [1] (setting [4]), 0.184; with RAW-Dual [1] (setting [5]), 0.719; with RAW-Dual [1] (setting [6]) it was 0.633.
Regarding `CCN(CC)Cc1cc(Nc2ccnc3cc(Cl)ccc23)ccc1O.Cl.Cl.O.O`, the “NF-kB SEAP reporter activity” value with RAW-Dual [2] (setting [7]) amounted to 0.244; in the assay on RAW-Dual [2] (setting [8]) it was 0.82.
Take `CCC(c1ccc(O)cc1)C(CC)c1ccc(O)cc1` (centres undefined) (library stock concentration (final ~1000-fold dilution): 10 mM): the “NF-kB SEAP reporter activity” value was determined as 1.36 with RAW-Dual [1] (agonist: LPS (TLR4) 0.1 ug/mL), 0.712 in the assay with RAW-Dual [1] (setting [4]), 0.842 in the assay with RAW-Dual [1] (setting [5]) and 0.989 in the assay on RAW-Dual [1] (setting [6]).
As to `CCC(c1ccc(O)cc1)C(CC)c1ccc(O)cc1` (centres undefined), the “NF-kB SEAP reporter activity” value in the assay with RAW-Dual [2] (setting [7]) worked out at 1.28; in the assay on RAW-Dual [2] (setting [8]), 1.24.

These data come from the supplement of paper PMC10037445.
